From PubChem BioAssay (NCATS)
This list was built around the results that the source calls inconclusive (neither active nor inactive); the mix of calls is not that of the screen. For some assays here: A potency beside an inconclusive call is a rough fit, not a confirmed value. Calls of active or inactive are those of the source. Unless noted, the call rests on the fitted dose curve; in most records, active means well fitted curve in the direction sought with a large enough effect; inconclusive means small, poorly fitted or top-dose-only effect, or another doubt; inactive means no such curve, though single readings can be large; an effect the other way counts as inactive or inconclusive.

Key:
[1] = molecular target: Cytochrome P450 2C9 (Homo sapiens) (UniProt P11712); assay: Cytochrome P450 family 2 subfamily C member 9 (CYP2C9) small molecule antagonists: luciferase biochemical (cell-free) qHTS assay (AID 1645842; active means well fitted curve in the direction sought with a large enough effect in the repeat runs; inconclusive means weak or mixed curves; inactive means no such curve, though single readings can be large; an effect the other way counts as inactive or inconclusive; further: potency means the concentration at half of the fitted maximal effect; nearly all actives have a fitted effect of over 55% in size)
Sequence of UniProt P11712 (P11712 whole entry, looked up): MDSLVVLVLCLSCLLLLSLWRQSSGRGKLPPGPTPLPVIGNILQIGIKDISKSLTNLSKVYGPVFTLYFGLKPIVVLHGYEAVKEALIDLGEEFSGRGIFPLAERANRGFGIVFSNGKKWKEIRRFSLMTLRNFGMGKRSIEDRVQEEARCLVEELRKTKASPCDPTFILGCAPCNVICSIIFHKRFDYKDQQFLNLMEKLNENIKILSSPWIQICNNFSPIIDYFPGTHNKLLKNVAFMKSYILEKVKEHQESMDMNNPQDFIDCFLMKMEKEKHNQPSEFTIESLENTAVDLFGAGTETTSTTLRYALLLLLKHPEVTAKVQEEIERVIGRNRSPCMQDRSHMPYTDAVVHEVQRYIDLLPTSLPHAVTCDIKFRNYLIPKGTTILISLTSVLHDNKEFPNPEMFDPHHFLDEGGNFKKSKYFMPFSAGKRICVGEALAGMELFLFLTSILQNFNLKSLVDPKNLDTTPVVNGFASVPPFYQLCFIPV
Summary of the method: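 P450-Glo CYP2C9 system: proluciferin substrate with enzyme in mix containing 0.4% BSA, 10 min at room temperature, then NADPH regeneration solution added and incubated 1 h at 37C. Detection reagent stopped reaction; luminescence read after 20 min as RLU.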

[2] = Primary fluorescence-based thiol-reactive (MSTI) qHTS assay for identification of artifact compounds. (AID 1845221);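 further: potency means the concentration at half of the fitted maximal effect; thiol-reactive compounds lower the probe fluorescence signal; nearly all actives have a fitted effect of over 65% in size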
Summary of the method: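 Probe: MSTI 4 uM, PBS pH 7.4, 2% DMSO. Incubation 1 h, RT, light-protected. Readout fluorescence 525/598 nm.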

[3] = test system: HaCat; assay: Cytotoxic Profiling of Annotated Libraries Using Quantitative High-Throughput Screening (AID 1296008); settings: Five cell lines viability, CellTiter-Glo ATP luminescence, 48-72 h; max response: hits give low values; further: nearly all actives have a fitted effect of over 60% in size; further: potency means the concentration at half of the fitted maximal effect; on max response: on the % scale 0 is the no-effect control and ±100 the full control effect
Summary of the method: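 Cells exposed to compounds for 48 or 72 hr at 37 degrees Celsius. Viability read as ATP-coupled luminescence with CellTiter-Glo after 10 min at room temperature.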

[4] = test system: JEG-3; assay: Primary qHTS to identify gynecologic anti-cancer compounds using libraries of approved drugs and bioactive compounds (AID 1345084); settings: Gynecologic cancer cell panel viability, ATPlite luminescence, 48 h; series mostly up to 57.5 µM; further: on the % scale 0 is the no-effect control and ±100 the full control effect; nearly all actives have a fitted effect of over 55% in size
Summary of the method: (§1)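 Cell viability after 48 h drug treatment, ATPlite luminescence readout; five doses.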

[5] = Primary qHTS for inhibitors of nuclear receptor binding SET domain protein 2 (NSD2) in an isogenic RCH-ACV NSD2 p.E1099K mutant (9B) (AID 1645876); settings: activity change, negative = viability loss: at 44.9 µM (top of the series) unless noted; further: on the % scale 0 is the no-effect control and ±100 the full control effect; nearly all actives have a fitted effect of over 70% in size
[6] = Primary redox qHTS assay for identification of artifact compounds. (AID 1845223); further: potency means the concentration at half of the fitted maximal effect
Summary of the method: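 Redox-cycling detection via DTT (250 uM final) oxidation coupled to Amplex Red (25 uM)/HRP (250 mU/mL) in HBSS. 15 min preincubation plus 30 min after DTT, room temperature. Ex/Em 525/598 nm; 4-parameter Hill fit against DMSO and 10 uM DA3003.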

[7] = test system: PA-1; assay: Primary qHTS to identify gynecologic anti-cancer compounds using libraries of approved drugs and bioactive compounds (AID 1345084); settings: Gynecologic cancer cell panel viability, ATPlite luminescence, 48 h; series mostly up to 57.5 µM; further: on the % scale 0 is the no-effect control and ±100 the full control effect; nearly all actives have a fitted effect of over 55% in size
Summary of the method: as §1

[8] = test system: Tov-21-G; assay: as above; settings: Gynecologic cancer cell panel viability, ATPlite luminescence, 48 h; series mostly up to 57.5 µM
Summary of the method: as §1

[9] = P-glycoprotein substrates identified in KB-3-1 adenocarcinoma cell line, qHTS therapeutic library screen (AID 1346986); further: nearly all actives have a fitted effect of over 60% in size
Summary of the method: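 Viability by CellTiter-Glo after 72 h compound exposure at 37 degree C, 5% CO2. Cytotoxic call: curve class -1.1 to -2.4, maximum response >50%, AC50 < 10 uM, compared across KB-3-1 and P-gp-overexpressing KB-8-5-11.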

[10] = test system: Zika virus NS2B-NS3 protease (unlinked complex); assay: Primary screen GU Rhodamine qHTS for Zika virus inhibitors: Unlinked NS2B-NS3 protease assay (AID 1347159); settings: Recombinant ZIKV NS2B-NS3 protease, Rhodamine110 substrate fluorescence; activity change, negative = inhibition: at 107 µM (top of the series); further: potency means the concentration at half of the fitted maximal effect; nearly all actives have a fitted effect of over 60% in size
Summary of the method: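 Percent inhibition came from the 15-min rise in Rhodamine110 fluorescence (1.5 microM substrate, ~15% conversion), normalized to no-inhibitor and no-enzyme wells and Hill-fitted. Unlinked protease, 25 nM, pH 8.0 Tris buffer; compounds up to 114 microM, 15-min preincubation.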

[11] = test system: Zika virus NS2B-NS3 protease (linked construct); assay: Primary screen NINDS Rhodamine qHTS for Zika virus inhibitors (AID 1347160)
Summary of the method: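 Rhodamine110-peptide cleavage (1.5 µM substrate) by 25 nM linked NS2B-NS3 enzyme at pH 8.0 (Tris, Tween 20), after 15 min RT preincubation with compounds; 15-min fluorescence change normalized to controls and Hill-fitted.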

[12] = Primary qHTS for inhibitors of nuclear receptor binding SET domain protein 2 (NSD2) in an RCH-ACV wild type WT cells (2C) (AID 1645877); settings: activity change, negative = cell killing: at 44.9 µM (top of the series) unless noted; further: potency means the concentration at half of the fitted maximal effect; nearly all actives have a fitted effect of over 70% in size
[13] = molecular target: Phospholipid hydroperoxide glutathione peroxidase GPX4 (Homo sapiens) (UniProt P36969); assay: Primary qHTS Assay for Inhibitors of Recombinant Selenoprotein Glutathione Peroxidase 4 (GPX4) (AID 1845192); settings: activity change, negative = inhibition: at 50 µM (top of the series) unless noted; further: potency means the concentration at half of the fitted maximal effect; nearly all actives have a fitted effect of over 65% in size
Sequence of UniProt P36969 (P36969 whole entry, looked up): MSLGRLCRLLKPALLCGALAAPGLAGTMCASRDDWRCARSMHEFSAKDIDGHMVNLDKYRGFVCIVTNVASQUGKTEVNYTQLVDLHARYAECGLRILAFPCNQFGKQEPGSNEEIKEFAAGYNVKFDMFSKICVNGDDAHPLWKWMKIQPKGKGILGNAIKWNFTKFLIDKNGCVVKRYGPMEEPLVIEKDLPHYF
Summary of the method: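 Steps: GPX4 plus compound, 30 min RT; add GR/GSH/NADPH master mix; start with cumene hydroperoxide; read 340/450 nm fluorescence at 0 and 15 min. Finals were 200 nM GPX4, 1 mM GSH, 0.5 mM CHP, 0.5 mM NADPH, 100 nM GR.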

[14] = test system: Hek293T; assay: Primary qHTS to identify gynecologic anti-cancer compounds using libraries of approved drugs and bioactive compounds (AID 1345084); settings: Gynecologic cancer cell panel viability, ATPlite luminescence, 48 h, control line for the selectivity index; series mostly up to 57.5 µM; further: on the % scale 0 is the no-effect control and ±100 the full control effect; nearly all actives have a fitted effect of over 55% in size
Summary of the method: as §1

[15] = test system: OV90; assay: as above; settings: Gynecologic cancer cell panel viability, ATPlite luminescence, 48 h; series mostly up to 57.5 µM
Summary of the method: as §1

[16] = test system: SKOV3; assay: as above; settings: Gynecologic cancer cell panel viability, ATPlite luminescence, 48 h; series mostly up to 57.5 µM
Summary of the method: as §1

[17] = qHTS Assay for Identification of Small Molecule Antagonists for NFkB Signaling Pathway (AID 895; active means well fitted inhibition curve with a large enough effect in the signal ratio, with a control signal flat, not every such curve was filed as active; inconclusive means small, poorly fitted or top-dose-only effect, or effect the other way, or a change in a side signal; the % refers to the signal ratio; further: potency means the concentration at half of the fitted maximal effect); settings: NFkB beta-lactamase reporter cells, FRET ratio 460/530, stimulated with 10 pM TNF alpha; activity change, negative = inhibition: at 38.3 µM (top of the series)
Summary of the method: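 ME-180 NFkB-bla cells (beta-lactamase under NFkB response element), plated overnight, treated with compound then 10 pM TNF alpha (about EC50) for 5 hrs at 37 C. LiveBLAzer FRET read at 460/530 nm emission, 405 nm excitation.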

[18] = qHTS Assay for Identification of Small Molecule Antagonists for Thrombopoietin (TPO) Signaling Pathway (AID 918); settings: TPO-dependent cell signaling reporter, antagonist mode; activity change, negative = inhibition: at 38.5 µM (top of the series); further: nearly all actives have a fitted effect of over 60% in size
Summary of the method: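 Luminescence read-out: GPIIb-promoter luciferase in Ba/F3 cells carrying human TPO receptor. Compounds added with 26 pM TPO (EC50), 24 hrs, 37 C, 5% CO2; cells deprived of IL-3 overnight beforehand. Inhibition of signal scored.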

[19] = molecular target: Muscarinic acetylcholine receptor M1 (Rattus norvegicus) (UniProt P08482); assay: qHTS Assay for Antagonists of Acetylcholine Muscarinic M1 Receptor: Kinetic Measurement of Intracellular Calcium Response (AID 943);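 further: Fluo-4 calcium signal as peak divided by basal fluorescence over 4 min; nearly all actives have a fitted effect of over 75% in size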
Sequence of UniProt P08482 (P08482 whole entry, looked up): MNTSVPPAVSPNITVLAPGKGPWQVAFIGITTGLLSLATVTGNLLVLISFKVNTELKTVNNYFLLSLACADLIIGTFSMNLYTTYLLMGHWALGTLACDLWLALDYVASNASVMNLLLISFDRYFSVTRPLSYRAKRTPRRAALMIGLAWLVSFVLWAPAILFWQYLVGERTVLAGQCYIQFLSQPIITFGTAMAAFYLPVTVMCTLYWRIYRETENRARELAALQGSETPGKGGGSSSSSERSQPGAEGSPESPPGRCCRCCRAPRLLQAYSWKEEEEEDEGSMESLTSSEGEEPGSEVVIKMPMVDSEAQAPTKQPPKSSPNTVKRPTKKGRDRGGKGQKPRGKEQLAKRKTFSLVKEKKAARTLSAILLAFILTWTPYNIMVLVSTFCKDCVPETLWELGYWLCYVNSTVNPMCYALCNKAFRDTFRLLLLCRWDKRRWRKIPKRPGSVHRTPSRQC
Summary of the method: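 Read-out: peak over basal Fluo-4 fluorescence, kinetic at 1 Hz for 4 min after EC80 carbachol (100 nM final). Rat M1-CHO cells, dye loaded 1 h at 37C, compound added 10 min before agonist.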

[20] = molecular target: Muscarinic acetylcholine receptor M1 (Rattus norvegicus) (UniProt P08482); assay: qHTS Assay for Antagonists of Acetylcholine Muscarinic M1 Receptor: Measurement of IP-One Response (AID 944); further: nearly all actives have a fitted effect of over 75% in size
[21] = molecular target: DNA repair nuclease/redox regulator APEX1 (Homo sapiens) (UniProt P27695); assay: qHTS FP-Based Assay for Inhibitors of the Human Apurinic/apyrimidinic Endonuclease 1 (APE1) (AID 2573); further: potency means the concentration at half of the fitted maximal effect
Sequence of UniProt P27695 (P27695 whole entry, looked up): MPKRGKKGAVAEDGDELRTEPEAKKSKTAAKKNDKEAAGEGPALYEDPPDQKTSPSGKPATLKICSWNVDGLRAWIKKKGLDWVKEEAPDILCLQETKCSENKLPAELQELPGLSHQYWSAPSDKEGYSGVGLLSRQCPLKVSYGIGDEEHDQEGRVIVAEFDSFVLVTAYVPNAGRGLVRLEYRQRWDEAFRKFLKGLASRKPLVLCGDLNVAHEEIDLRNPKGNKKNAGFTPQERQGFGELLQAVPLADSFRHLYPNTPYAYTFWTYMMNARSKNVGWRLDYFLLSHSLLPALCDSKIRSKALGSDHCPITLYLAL

[22] = qHTS of pediatric cancer cell lines to identify multiple opportunities for drug repurposing: Primary screen for BT-37 cells (AID 1347094);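 further: plate controls were DMSO for no effect and bortezomib for full effect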
Summary of the method: (§2)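 Luminescence from CellTiter-Glo served as readout of metabolically active cells after 48 h compound exposure. Titrations: MIPE 11-point, from 0.78 nM; NPC 8-point, from 0.59 nM (final). Concentration-response curves came straight from the primary screen.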

[23] = qHTS of pediatric cancer cell lines to identify multiple opportunities for drug repurposing: Primary screen for NB-EBc1 cells (AID 1347095);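 further: plate controls were DMSO neutral control for no effect and bortezomib for full effect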
Summary of the method: as §2

[24] = qHTS of pediatric cancer cell lines to identify multiple opportunities for drug repurposing: Primary screen for SK-N-SH cells (AID 1347098); further: potency means the concentration at half of the fitted maximal effect; nearly all actives have a fitted effect of over 65% in size
Summary of the method: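 Cells (500-1,000/well) rested 5 h, then received compounds for 48 h; metabolically active cells were measured by CellTiter-Glo luminescence. Final concentrations spanned up to 46 µM (MIPE, 11-point) or 0.59 nM-46 µM (NPC, 8-point) in primary screens, 11-point in follow-ups.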

[25] = qHTS of pediatric cancer cell lines to identify multiple opportunities for drug repurposing: Primary screen for Rh18 cells (AID 1347102); further: on the % scale 0 is the no-effect control and ±100 the full control effect; nearly all actives have a fitted effect of over 65% in size
Summary of the method: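 Viability after 48 h compound treatment at 37C, 500-1,000 cells/well, read as ATP luminescence with CellTiter-Glo. Primary screens used 11-point (MIPE, 0.78 nM-46 µM) or 8-point (NPC, 0.59 nM-46 µM) final concentrations; follow-up screens used 11-point dilutions.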

[26] = qHTS of pediatric cancer cell lines to identify multiple opportunities for drug repurposing: Primary screen for MG 63 (6-TG R) cells (AID 1347105); settings: MG 63 (6-TG R) viability, CellTiter-Glo, 48 h; activity change, negative = cytotoxic: at 46 µM (top of the series); further: on the % scale 0 is the no-effect control and ±100 the full control effect; nearly all actives have a fitted effect of over 50% in size
Summary of the method: as §2

[27] = test system: Zika virus NS2B-NS3 protease; assay: Primary screen GU AMC qHTS for Zika virus inhibitors (AID 1347154); further: potency means the concentration at half of the fitted maximal effect; nearly all actives have a fitted effect of over 70% in size
Summary of the method: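 Unlinked Zika NS2B hydrophilic domain–NS3 protease complex at 25 nM in 10 mM Tris-HCl pH 8.0, 0.01% Tween 20, with an AMC peptide substrate. Fluorescence change (340/450 nm) over 15 min at room temperature, normalized to controls, fitted to 4-parameter Hill.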

[28] = molecular target: Cytochrome P450 3A4 (Homo sapiens) (UniProt P08684); assay: Cytochrome P450 family 3 subfamily A member 4 (CYP3A4) small molecule antagonists: luciferase qHTS assay (AID 1645841; active means well fitted curve in the direction sought with a large enough effect in the repeat runs; inconclusive means weak or mixed curves; inactive means no such curve, though single readings can be large; an effect the other way counts as inactive or inconclusive; further: potency means the concentration at half of the fitted maximal effect; nearly all actives have a fitted effect of over 45% in size)
Sequence of UniProt P08684 (P08684 whole entry, looked up): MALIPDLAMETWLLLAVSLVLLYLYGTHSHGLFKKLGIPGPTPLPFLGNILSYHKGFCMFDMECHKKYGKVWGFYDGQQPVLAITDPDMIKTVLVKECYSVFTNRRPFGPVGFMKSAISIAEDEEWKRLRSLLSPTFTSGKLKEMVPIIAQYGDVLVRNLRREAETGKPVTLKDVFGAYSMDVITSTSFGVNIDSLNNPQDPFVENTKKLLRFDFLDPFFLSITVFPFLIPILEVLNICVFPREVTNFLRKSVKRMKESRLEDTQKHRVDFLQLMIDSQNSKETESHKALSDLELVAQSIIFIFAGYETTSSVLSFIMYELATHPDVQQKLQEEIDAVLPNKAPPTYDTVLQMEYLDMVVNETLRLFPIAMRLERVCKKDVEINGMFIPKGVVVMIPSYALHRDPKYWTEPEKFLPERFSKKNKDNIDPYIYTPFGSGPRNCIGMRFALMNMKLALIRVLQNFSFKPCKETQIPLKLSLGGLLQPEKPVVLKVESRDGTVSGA
Summary of the method: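 P450-Glo CYP3A4 enzyme with proluciferin substrate preincubated 10 min with compound at room temperature, then NADPH regeneration 1 h. Luciferin detection reagent added for 20 min; luminescence recorded. Ketoconazole positive control.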

[29] = test system: HeLa; assay: Primary qHTS to identify gynecologic anti-cancer compounds using libraries of approved drugs and bioactive compounds (AID 1345084); settings: Gynecologic cancer cell panel viability, ATPlite luminescence, 48 h; series mostly up to 57.5 µM
Summary of the method: as §1

[30] = test system: Tov112D; assay: as above; settings: Gynecologic cancer cell panel viability, ATPlite luminescence, 48 h; series mostly up to 57.5 µM
Summary of the method: as §1

[31] = Drug repurposing screens with cells derived from glioblastoma tumor samples (AID 1345199); settings: GBM patient neurospheres viability, ATP luminescence, 48 h; Potency: tumour line A unless noted; activity, negative = cell killing: at 46 µM (top of the series), tumour line A unless noted; further: on the % scale 0 is the no-effect control and ±100 the full control effect; nearly all actives have a fitted effect of over 40% in size
Summary of the method: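 Primary testing used CD133+ neurospheres from four GBM patients, seven concentrations, 48 h exposure and ATP-based viability; confirmation added three slower-growing patient lines.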
Tags describe the fitted curve by direction and shape or compound fluorescence and quenching.

Cc1[nH]c2ccccc2c1CCNC(=O)c1ccccc1F
active: Potency [2] 4.23 µM
inactive: Potency [4]
inconclusive: Potency [1] 21.3 µM [inhibitor, single point] | Potency [3] 29.1 µM [inhibitor, single point]

CCOC(=O)CCN(C(=O)c1ccc2c(c1)nc(CNc1ccc(C(=N)N)cc1)n2C)c1ccccn1
inactive: Potency [5] | Potency [6] | Potency [7] | Potency [8]
inconclusive: Potency [1] 26.8 µM [inhibitor, single point] | Potency [3] 0.651 µM [inhibitor, full curve, poor fit]

COc1cc2c3c(cc4ccccc4c3c1O)NC2=O
inactive: Potency [9] | Potency [14] | Potency [15] | Potency [16]
active: Potency [10] 22.4 µM | Potency [2] 10.6 µM
inconclusive: Potency [11] 25.1 µM [inhibitor, single point] | Potency [12] 29 µM [inhibitor, single point] | Potency [13] 22.7 µM [inhibitor, partial curve, poor fit] | Potency [3] 6.51 µM [inhibitor, partial curve, poor fit]

C[C@@H]1O[C@@H](O[C@H]2[C@H](O[C@H]3[C@H](O[C@H]4CC[C@@]5(C)C(CC[C@]6(C)C5CC=C5[C@@H]7CC(C)(C(=O)O)C[C@@H](O)[C@]7(C)CC[C@]56C)[C@@]4(C)CO)O[C@H](C(=O)O)[C@@H](O)[C@@H]3O)O[C@H](CO)[C@H](O)[C@@H]2O)[C@H](O)[C@H](O)[C@H]1O (stereo partly specified)
inactive: outcome [3] | activity change, negative = cytotoxicity [4] -9.71% [at 11.6 µM]
inconclusive: Potency [2] 5.05 µM [inhibitor, partial curve] | Potency [6] 5.66 µM [activator, single point]

Oc1cc(O)c2c(c1)O[C@H](c1ccc(O)c(O)c1)[C@H](O)C2
inactive: Potency [19] | Potency [20] | Potency [22] | Potency [23] | Potency [25] | Potency [26] | Potency [5] | max response [3] 4.8% | Potency [29] | Potency [30] | Potency [31]
inconclusive: Potency [17] 0.0282 µM [activator, full curve, poor fit] | activity change, negative = inhibition [18] -23.6% [phenotype inactive] | Potency [21] 3.98 µM [inhibitor, partial curve, poor fit] | Potency [24] 0.0307 µM [cytotoxic, full curve, poor fit] | Potency [27] 18.1 µM [inhibitor, partial curve] | Potency [28] 21.9 µM [falling, partial curve, poor fit]
